Among all 360,000 compounds or so, about 11,000 (3.1%) were called active. Inconclusive results, whose numbers are uncertain, are shown with a selection of clear calls. Calls come from the whole dose curve; as a rule, active = well fitted inhibition curve with a large enough effect; inconclusive = small, poorly fitted or top-dose-only effect; inactive = no such curve, though single readings can be large or run the other way. Potencies of inconclusive entries are left out as doubtful fits.
Molecular target: Schistosoma mansoni thioredoxin glutathione reductase (TGR) (UniProt Q962Y6)
Assay: qHTS Assay for the Inhibitors of Schistosoma Mansoni Peroxiredoxins; note: nearly all actives have a fitted effect of over 60% in size
Settings: purified TGR, DTNB reduction, TNB absorbance 405 nm; activity change, negative = inhibition: at 114 µM (top of the series) unless noted
Summary of the method: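 First, TGR (20 nM dispensed) and NADPH were mixed with compound. Second, a 15 min room-temperature incubation followed. Third, further NADPH and then DTNB were added to start the reaction. Finally, TNB absorbance was monitored kinetically.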
% is set by controls: 0 for no effect and ±100 for the full control effect; potency is the fitted concentration of half-maximal effect; tags give direction and shape of the fitted curve.

Row | Structure (SMILES) | activity change, negative = inhibition | Potency
1 | N/C(=N\OC(=O)CC1CCCCC1)c1ccc(Br)cc1 | inconclusive: -36.6% [inhibitor] | –
2 | Cc1cccnc1NC(=O)c1ccc(S(=O)(=O)NCc2ccco2)cc1 | inactive: -2.76% | –
3 | O=C(NCC1CCCO1)NC1(C(F)(F)F)Oc2ccccc2O1 (configuration not stated) | – | inconclusive [inhibitor, full curve, poor fit]
4 | NC(=O)CCSC(=S)N1CCOCC1 | – | inconclusive [inhibitor, single point]
5 | O=C(O)/C=C/c1ccc2c(-c3ccccc3)onc2c1 | – | inconclusive [inhibitor, partial curve]
6 | COC(=O)N1C(=O)[C@](Cc2ccccc2)(c2ccccc2)N1C(=O)OC | – | active: 3.55 µM
7 | O=C(CCn1c(=O)oc2ccccc21)N1CCN(c2ccc(F)cc2)CC1 | – | inconclusive [inhibitor, partial curve]
8 | COC(=O)c1ccc(C23CC4(C2)[C@H](CN(Cc2ccc(C(F)(F)F)cc2)[C@@H]4c2ccccc2)C3c2ccc(Cl)nc2)cc1 (some centres not stated) | – | inconclusive [inhibitor, partial curve]
9 | Nc1nc(-c2ccccc2)cn1/N=C/c1ccccc1 | – | inconclusive [inhibitor, partial curve]
10 | CCOc1cc(NS(=O)(=O)c2ccccc2)c(OCC)cc1NC(=O)c1ccco1 | – | active: 31.6 µM
11 | COc1ccc(C2C=C(c3ccc(Br)cc3)Nc3nc(NS(C)(=O)=O)nn32)cc1 (configuration not stated) | – | active: 22.4 µM
12 | C=CCn1c(NC(=O)c2ccc(Br)o2)c(S(=O)(=O)c2ccccc2)c2nc3ccccc3nc21 | – | inconclusive [inhibitor, single point]
13 | COc1ccccc1/C=N/OCc1cc(C(C)=O)ccc1OC | – | active: 11.2 µM
14 | COC(=O)c1ccc(CN(C)S(=O)(=O)c2ccc(C)cc2)o1 | inactive: 7.72% | –
15 | CCCC[n+]1c2ccccc2cc2ccccc21 | – | inconclusive [inhibitor, partial curve]
16 | COc1cc(-c2nnc(SCC(=O)Oc3ccccc3Cl)o2)cc(OC)c1OC | – | inconclusive [inhibitor, single point]
17 | O=C(/C=C/c1cccc(F)c1)c1ccc(N2CCOCC2)cc1 | – | inconclusive [inhibitor, partial curve]
18 | CCn1c(-c2ccc(F)cc2)cnc1SCC(=O)N1CCCCC1C (configuration not stated) | inactive: 4.6% | –
19 | Cc1cc2ncn(-c3ncccc3[N+](=O)[O-])c2cc1C | – | active: 44.7 µM
20 | COc1ccccc1C(=O)Nc1cccc2cccnc12 | – | inconclusive [inhibitor, full curve, poor fit]
21 | CC(C)(C)C(=O)n1nc(-c2ccccc2)oc1=O | – | active: 31.6 µM
22 | CCCc1cc(=O)oc2cc(C)c(CN3CCCC3)c(O)c12 | – | inconclusive [inhibitor, partial curve]
23 | COc1ccc(N2C3=C(CC4=C2CCCC4=O)C(=O)CCC3)cc1 | – | active: 39.8 µM
24 | CCOC(=O)C1CCN(S(=O)(=O)c2ccc(NC(C)=O)c(Cl)c2)CC1 | inactive: 9.85% | –

Row | Structure (SMILES) | activity change, negative = inhibition | Potency
25 | Cc1ccc(NC(=O)Cc2nc(-c3c[nH]c(C(=O)N4CCCC4)c3)cs2)c(C)c1 | – | inconclusive [inhibitor, partial curve]
26 | Cc1ccc(Cl)cc1N1CCN(CCN)CC1 | inactive: -4.2% | –
27 | Cc1cccc(NC(=O)CCS(=O)(=O)c2ccc3c(c2)oc(=O)n3C)c1 | – | inconclusive [inhibitor, partial curve]
28 | O=c1[nH]c2c(s1)C=Nc1ccccc1N2 | – | inconclusive [inhibitor, single point]
29 | COc1ccc(C2C(CC(=O)O)=C(O)C(=O)N2c2ccccc2)cc1 (configuration not stated) | – | inconclusive [inhibitor, partial curve]
30 | C=CCOc1cccc(C2C(C(=O)c3ccc(C)o3)=C(O)C(=O)N2c2nccs2)c1 (configuration not stated) | – | inconclusive [inhibitor, partial curve]
31 | CCC(C)N(C)C1CCN(C(=S)Nc2ccc(OC)cc2)CC1 (configuration not stated) | – | inconclusive [inhibitor, partial curve]
32 | Cc1cccc(N2C(=O)CC(Sc3ccccc3C(=O)O)C2=O)c1 (configuration not stated) | – | active: 14.1 µM
33 | CCCCn1c(SCC(=O)c2c(N)n(C3CC3)c(=O)[nH]c2=O)nc2cc(S(N)(=O)=O)ccc21 | inactive: 2.7% | –
34 | O=C(O)CCCNS(=O)(=O)c1ccc2ccccc2c1 | – | inconclusive [inhibitor, full curve]
35 | COc1cc(NC(=S)NC(=O)c2ccco2)ccc1NC(=O)C(C)C | – | active: 25.1 µM
36 | CC(/C=N/NC(=O)c1nnn(-c2nonc2N)c1C(C)C)=C\c1ccco1 | – | inconclusive [inhibitor, partial curve]
37 | O=C(CNC(=O)C(c1ccccc1)c1ccccc1)OCc1ccccc1 | inactive: 1.21% | –
38 | O=C(Nc1ccccc1)NC1CCN(Cc2c(F)cccc2Cl)CC1 | inactive: -2.01% | –
39 | CCCn1c(N/N=C\C=C\c2ccccc2)nc2c1c(=O)[nH]c(=O)n2C | – | inconclusive [inhibitor, partial curve]
40 | O=C(CSc1n[nH]c(=O)[nH]c1=O)c1ccc([N+](=O)[O-])cc1 | – | inconclusive [inhibitor, partial curve]
41 | CCC(=O)N1CCC2(CC1)Oc1ccc(Cl)cc1C(=O)C21CC(c2ccc(Cl)cc2)=NO1 (configuration not stated) | inactive: -11.8% | –
42 | CCOc1ccc(N2C(=O)NC(=O)/C(=C\c3ccc(N4CCOCC4)cc3C)C2=O)cc1 | – | inconclusive [inhibitor, full curve]
43 | CN(C)c1ccc(/C=N/NC(=O)c2ccc(Cl)cc2)cc1 | inactive: -0.549% | –
44 | Cc1ccc(S(=O)(=O)Cn2nnnc2CN2CCCC3(CCCCC3)C2)cc1 | – | inconclusive [inhibitor, full curve, poor fit]
45 | CCOc1ccccc1CNC(=O)C1CCCN(S(=O)(=O)c2ccc3c(ccn3C)c2)C1 (configuration not stated) | inactive: 2.74% | –
46 | O=C(NC(=S)NNC(=O)[C@H]1C[C@@H]1c1ccccc1)c1ccc(F)cc1 | – | inconclusive [inhibitor, full curve]
47 | O=[N+]([O-])c1ccc(/C=[N+](\[O-])[C@@H]2CCCC[C@@H]2/[N+]([O-])=C/c2ccc([N+](=O)[O-])o2)o1 | – | active: 3.55 µM
